Source: the supplement of paper PMC11741623
This is one part of the list. Interaction screen of human proteins with wild-type SARS-CoV-2 proteins by split-DHFR complementation in yeast, 1 µg/mL methotrexate. Value = fitness of the pair (three or more lineages) minus that of the viral protein without a human partner, on a scale set by negative (0) and fused positive (1) controls, mean of up to three cultures; higher = more likely to interact. Active = false discovery rate below 0.05 (one-sided t-test) in at least one culture. Nearly all pairs are not hits, and differences among them are mostly noise (correlation between cultures about 0.3); most hits were seen in one culture only. Human sequences are the Swiss-Prot entries looked up by gene name; the clone may be another isoform. NSP2 values were corrected by the authors for a growth advantage. Listed are human proteins with a hit and a random twelfth of the others.

B1: TMED10, P49755 (protein)
chain: MSGLSGPPARRGPFPLALLLLFLLGPRLVLAISFHLPINSRKCLREEIHKDLLVTGAYEISDQSGGAGGLRSHLKITDSAGHILYSKEDATKGKFAFTTEDYDMFEVCFESKGTGRIPDQLVILDMKHGVEAKNYEEIAKVEKLKPLEVELRRLEDLSESIVNDFAYMKKREEEMRDTNESTNTRVLYFSIFSMFCLIGLATWQVFYLRRFFKAKKLIE
B2: ACAA2, P42765 (protein)
chain: MALLRGVFVVAAKRTPFGAYGGLLKDFTATDLSEFAAKAALSAGKVSPETVDSVIMGNVLQSSSDAIYLARHVGLRVGIPKETPALTINRLCGSGFQSIVNGCQEICVKEAEVVLCGGTESMSQAPYCVRNVRFGTKLGSDIKLEDSLWVSLTDQHVQLPMAMTAENLAVKHKISREECDKYALQSQQRWKAANDAGYFNDEMAPIEVKTKKGKQTMQVDEHARPQTTLEQLQKLPPVFKKDGTVTAGNASGVADGAGAVIIASEDAVKKHNFTPLARIVGYFVSGCDPSIMGIGPVPAISGALKKAGLSLKDMDLVEVNEAFAPQYLAVERSLDLDISKTNVNGGAIALGHPLGGSGSRITAHLVHELRRRGGKYAVGSACIGGGQGIAVIIQSTA
B3: ARF3, P61204 (protein)
chain: MGNIFGNLLKSLIGKKEMRILMVGLDAAGKTTILYKLKLGEIVTTIPTIGFNVETVEYKNISFTVWDVGGQDKIRPLWRHYFQNTQGLIFVVDSNDRERVNEAREELMRMLAEDELRDAVLLVFANKQDLPNAMNAAEITDKLGLHSLRHRNWYIQATCATSGDGLYEGLDWLANQLKNKK
B4: ARMCX1, Q9P291 (protein)
chain: MGRTREAGCVAAGVVIGAGACYCVYRLAWGRDENEKIWDEDEESTDTSEIGVETVKGAKTNAGAGSGAKLQGDSEVKPEVSLGLEDCPGVKEKAHSGSHSGGGLEAKAKALFNTLKEQASAKAGKGARVGTISGNRTLAPSLPCPGGRGGGCHPTRSGSRAGGRASGKSKGKARSKSTRAPATTWPVRRGKFNFPYKIDDILSAPDLQKVLNILERTNDPFIQEVALVTLGNNAAYSFNQNAIRELGGVPIIAKLIKTKDPIIREKTYNALNNLSVNAENQGKIKTYISQVCDDTMVCRLDSAVQMAGLRLLTNMTVTNHYQHLLSYSFPDFFALLFLGNHFTKIQIMKLIINFTENPAMTRELVSCKVPSELISLFNKEWDREILLNILTLFENINDNIKNEGLASSRKEFSRSSLFFLFKESGVCVKKIKALANHNDLVVKVKVLKVLTKL

How the values were obtained:
Experiment in all cases: yeast fitness gain over the viral ORF with no human partner (scaled fitness); higher = more likely to interact
SARS-CoV-2 E = biological target: SARS-CoV-2 E
Procedure: (§1)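 Split mouse DHFR complementation in pooled diploid yeast: human ORFeome clones carry one fragment and viral ORFs the other; barcoded lineages compete in 1 µg/mL methotrexate and fitness is read by barcode sequencing in up to three cultures.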

SARS-CoV-2 M = biological target: SARS-CoV-2 M
Procedure: as §1

SARS-CoV-2 N = biological target: SARS-CoV-2 N
Procedure: as §1

SARS-CoV-2 NSP1 = biological target: SARS-CoV-2 NSP1
Procedure: as §1

SARS-CoV-2 NSP10 = biological target: SARS-CoV-2 NSP10
Procedure: as §1

SARS-CoV-2 NSP12 = biological target: SARS-CoV-2 NSP12
Procedure: as §1

SARS-CoV-2 NSP13 = biological target: SARS-CoV-2 NSP13
Procedure: as §1

SARS-CoV-2 NSP15 = biological target: SARS-CoV-2 NSP15
Procedure: as §1

SARS-CoV-2 NSP16 = biological target: SARS-CoV-2 NSP16
Procedure: as §1

SARS-CoV-2 NSP2 = biological target: SARS-CoV-2 NSP2
Procedure: as §1

SARS-CoV-2 NSP5 = biological target: SARS-CoV-2 NSP5
Procedure: as §1

SARS-CoV-2 NSP6 = biological target: SARS-CoV-2 NSP6
Procedure: as §1

SARS-CoV-2 NSP7 = biological target: SARS-CoV-2 NSP7
Procedure: as §1

SARS-CoV-2 NSP8 = biological target: SARS-CoV-2 NSP8
Procedure: as §1

SARS-CoV-2 NSP9 = biological target: SARS-CoV-2 NSP9
Procedure: as §1

SARS-CoV-2 ORF10 = biological target: SARS-CoV-2 ORF10
Procedure: as §1

SARS-CoV-2 ORF3A = biological target: SARS-CoV-2 ORF3A
Procedure: as §1

SARS-CoV-2 ORF3B = biological target: SARS-CoV-2 ORF3B
Procedure: as §1

SARS-CoV-2 ORF6 = biological target: SARS-CoV-2 ORF6
Procedure: as §1

SARS-CoV-2 ORF7A = biological target: SARS-CoV-2 ORF7A
Procedure: as §1

SARS-CoV-2 ORF7B = biological target: SARS-CoV-2 ORF7B
Procedure: as §1

SARS-CoV-2 ORF8 = biological target: SARS-CoV-2 ORF8
Procedure: as §1

SARS-CoV-2 ORF9B = biological target: SARS-CoV-2 ORF9B
Procedure: as §1

[1] = biological target: SARS-CoV-2 ORF9Bwu (the 73-codon ORF)
Procedure: as §1

SARS-CoV-2 S = biological target: SARS-CoV-2 S
Procedure: as §1

SARS-CoV-2 NSP14 = biological target: SARS-CoV-2 NSP14
Procedure: as §1

SARS-CoV-2 NSP4 = biological target: SARS-CoV-2 NSP4
Procedure: as §1

Binder	yeast fitness gain (SARS-CoV-2 E)	yeast fitness gain (SARS-CoV-2 M)	yeast fitness gain (SARS-CoV-2 N)	yeast fitness gain (SARS-CoV-2 NSP1)	yeast fitness gain (SARS-CoV-2 NSP10)	yeast fitness gain (SARS-CoV-2 NSP12)	yeast fitness gain (SARS-CoV-2 NSP13)	yeast fitness gain (SARS-CoV-2 NSP15)	yeast fitness gain (SARS-CoV-2 NSP16)	yeast fitness gain (SARS-CoV-2 NSP2)	yeast fitness gain (SARS-CoV-2 NSP5)	yeast fitness gain (SARS-CoV-2 NSP6)	yeast fitness gain (SARS-CoV-2 NSP7)	yeast fitness gain (SARS-CoV-2 NSP8)	yeast fitness gain (SARS-CoV-2 NSP9)	yeast fitness gain (SARS-CoV-2 ORF10)	yeast fitness gain (SARS-CoV-2 ORF3A)	yeast fitness gain (SARS-CoV-2 ORF3B)	yeast fitness gain (SARS-CoV-2 ORF6)	yeast fitness gain (SARS-CoV-2 ORF7A)	yeast fitness gain (SARS-CoV-2 ORF7B)	yeast fitness gain (SARS-CoV-2 ORF8)	yeast fitness gain (SARS-CoV-2 ORF9B)	yeast fitness gain [1]	yeast fitness gain (SARS-CoV-2 S)	yeast fitness gain (SARS-CoV-2 NSP14)	yeast fitness gain (SARS-CoV-2 NSP4)
B1	inactive: -0.109	inactive: -0.0339	inactive: -0.287	inactive: 0.0729	inactive: 0.018	inactive: -0.0204	inactive: -0.0386	inactive: -0.165	inactive: 0.0179	inactive: -0.0785	inactive: -0.0474	inactive: 0.0305	inactive: -0.114	inactive: -0.0128	inactive: 0.112	inactive: 0.0485	inactive: -0.0315	inactive: -0.00517	inactive: -0.0127	inactive: 0.257	active: 0.314	inactive: -0.00243	inactive: 0.000988	inactive: -0.0199	inactive: 0.0399	–	–
B2	inactive: -0.00605	inactive: 0.0469	inactive: 0.115	inactive: -0.014	inactive: 0.0601	inactive: 0.0666	inactive: 0.0666	inactive: 0.00964	inactive: -0.0353	inactive: -0.0608	inactive: 0.00697	inactive: 0.0401	inactive: 0.0153	inactive: 0.0672	inactive: 0.0306	inactive: 0.0656	inactive: 0.0474	inactive: 0.000666	inactive: 0.0344	inactive: 0.138	inactive: 0.0339	inactive: -0.0217	inactive: -0.0225	inactive: -0.00278	inactive: 0.0616	inactive: -0.119	inactive: 0.173
B3	inactive: 0.0743	inactive: -0.0201	inactive: 0.0715	inactive: 0.103	inactive: 0.039	inactive: 0.00162	inactive: 0.0021	inactive: -0.163	inactive: 0.0502	active: 0.207	inactive: 0.0572	inactive: 0.0856	inactive: 0.0164	inactive: -0.0133	inactive: -0.00402	inactive: 0.0244	inactive: 0.0959	inactive: 0.0124	inactive: 0.0164	inactive: 0.0654	inactive: 0.13	inactive: -0.0549	inactive: 0.0653	inactive: 0.0441	inactive: -0.0596	inactive: -0.267	inactive: -0.118
B4	inactive: 0.0392	inactive: -0.0124	–	inactive: 0.0315	inactive: -0.0728	inactive: 0.0792	inactive: -0.0122	–	–	inactive: -0.205	inactive: -0.0264	inactive: 0.0611	inactive: 0.0892	inactive: -0.00483	inactive: 0.0457	inactive: -0.0295	inactive: 0.0177	inactive: -0.0728	inactive: 0.0343	–	inactive: 0.0824	inactive: 0.0831	inactive: -0.0159	inactive: 0.0245	inactive: -0.00537	–	–
